Assay results: the RNAGym collection of RNA variant scans (doi:10.1093/nar/gkz1192)
Read counts are not given, so values of variants with three or more changes are uncertain.

B1: CPEB3 Ribozyme (parent)
chain: UAACAGGGGGCCACAGCAGAAGCGUUCACGUCGCAGCCCCUGUCAGAUUCUGGUGAAUCUGCGAAUUCUGCUGUAUAUCUC

Variants of: B1
Experiment: self-cleavage, relative activity (ratio to wild type); higher = more cleavage; in vitro, sequencing
Summary of the method: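 Libraries of CPEB3 self-cleaving ribozyme mutants came from rounds of error-prone PCR and carried barcodes, which DNA sequencing matched to variants. In vitro transcription used T7 RNA polymerase at 37°C for 5 hours, with a further 15 min in DNase I before EDTA stopped the reaction; the ribozymes cleaved during both steps. The RNA was reverse transcribed with template switching and sequenced on Illumina. Relative activity is the cleaved/total read fraction of a variant divided by that of the unmutated ribozyme, averaged over three batches with at least 5 reads.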

Variant | self-cleavage
A2G U51A U54C U72C | 0.58
A3G A20U C32A | 0.18
A2U C11U A13G A28G A65G U69A | 0.16
A3G A18G A47G U54A U67C U72C | 1.12
A3G A13G A15C U49C A64U | 0
A3G A13G A21G U31C C40A A64G | 0.12
A3C G9C G61U | 0.33
A2U G8A U41C | 0.42
A3G A35G A47G G63U A77U | 1.26
A3G A5U A21G C44A A64G U78C | 0.33
A3G A15G G33A U43C | 0.2
A2U A15G A28C G33A G55U | 0.23
A3G A15U U31C G36U U72C | 0.28
A3G A20G A57G U60C U76C | 0.43
A2U A13C A20G U25C G73A | 0.11
A3G A5G A35C U49C U67A U69C | 0.08
A3G A5G G9A A57G C62A | 0.33
A3G A13G C27G G63A U66C U76G | 0.12
A3G A18U A20G A28U U51C U72C | 0.55
A2U A15G G33C A35G A45C U80C | 0.06
A3G A35G U60C | 1.26
A2U C29U A65U | 0.19
A3G A18C U60A | 0.28
A3G A15G A20U A28G U54C U60C | 0.42

Variant | self-cleavage
A2U A18U A20G C50A G70U | 0.26
A3G A20U A28G | 0.51
A3C U25A U31A C37U A45U U74C C81A | 0.05
A2U A18C A28G U49C U67G | 0.04
A3G A35G U43A A47G | 1.2
A2U C17A A64U | 0.11
A2U A20G A28U U31C G33A U74C | 0.23
A3C A56G U67C | 0.15
A3G A5U A15U U58C A75C | 0.91
A3G A35G G36A U51A | 1.18
A3G A20G A35U U43G A56U A65G | 0.2
A3G A5U U25C G30A A56U A57G A64U | 0.15
A2U U49A C68A U80C | 0.15
A3G A20G U60C U76C | 0.55
A2G U48A U58C U72A | 0.21
A3G A5G A28U A45G | 0.32
A3C G33C C40U U41A A75U | 0.13
A2U A5U U41C U43C U72G | 0.41
A3G A18U A21G C32U | 0.41
A3G A18G C62U | 0.25
A3G A35U A56C A65G U74A | 0.15
A3G A35U U49A A56U U69A U78C | 0.17
A3G A21C U43G U48C U60A U80C | 0.05
A2U C59G U60G | 0.15

Variant | self-cleavage
A3G A18G U41C U49C U66C | 0.39
A3C A18U A20G | 0.7
A3G A18U U26C U67C | 0.18
A3G A28U U31C U80A | 0.98
A3G A20G U25C U31C | 0.57
A3G A5G U41C U48C | 0.73
A3G A5U G9A A20U A28G | 0.15
A3G A15U A21G G24A G73A U76C | 0.1
A2G U60A A64G | 0.11
A3C A13G U31A U48C | 0.68
A2U A28G C39G U43C A56G G73A A77U | 0.06
A2U A5G A21G C34G U67A U80C | 0.08
A2U G10A U49C | 0.07
A3G A13U C32G U49C C59A U69A | 0
A2U A47G U48C G70C U80C | 0.16
A2U G8A C12A G33U A45G | 0.18
A3G A15G A75G | 1.11
A3G A13U G22A U31C A75G | 0.3
A3G A18G U58C | 0.44
A3G A18G U58G | 0.69
A2U G33C A57G A64C U78C | 0.13
A3C G9U U48A U69C U76G | 0.19
A3G A35G U60A U72A | 0.92
A3G A18G A47U U51A A65G U69C | 0.16

Variant | self-cleavage
A3G A28U A35U C39G | 0.11
A3G A15U A18G U25C A65G | 0.1
A3G A28G U41A G55A A65G U67C U72A | 0.15
A3G A15U U43C U54A | 0.28
A2U C4U A21G | 0.98
A2U A5G A15G C27U G33C A47G U76C | 0.15
A2U U41C U51C U69G A77G | 0.57
A3G A18U U49C | 0.36
A3G A13U U31C U48C U66C | 0.07
A3C U26A U51C G63U | 1.03
A3C U26C A47G | 0.65
A2U U31C U60C C68A | 0.1
A2G U78A U80A | 1
A2U A5U G7A A35G A56U A57G U76C | 0.11
A3C G10C U76C | 0.52
A2U A15G A47U | 0.37
A2U A28G C39G A56G U78C | 0.2
A2U A45G U51C U54C A64G U66A | 0.22
A3G A18G A45U A64G U72C | 0.13
A3C U26A C27U A35G | 0.77
A2U G30U A35G | 0.16
A3G A15U U76C | 0.77
A2G U58A U69C | 0.16
A3C A15G A18U U31C A56G U80C | 0.09

Variant | self-cleavage
A3C A21G U26A U80C | 0.92
A3G A15U G16C G33A U41A U80A | 0.53
A2U G30A U41C U54C U60A A64U A77U | 0.1
A3G A5U A18G U25C U51A A65G | 0.05
A3C G9C A56G G61U U69C | 0.28
A3G A20U G42A U60C U66C U69A | 0.25
A3G A18G C50U U74A U78C | 1.05
A3G A15C A35U U48C A56C A57U | 0.12
A3G A35U U41A U48C | 0.06
A3G A21G U41C | 0.52
A3G A15G U31A | 0.6
A3G A13U A21G | 0.76
A2U A56U U58A | 0.17
A3G A13G U48C U49C U60C | 0
A2U A21G A45G U69C | 0.09
A3G A18C A45U A77G | 0.25
A3G A20G U51C U54A | 0.83
A2U A45G U66A | 0.56
A2U A15U A20U C38A U54C A64U U72A | 0.05
A2U A3G A21G U26A U51C A64G | 0.28
A2U A5U A13U A15C G24U U72C | 0.5
A2U U41A C62A U80C | 0.19
A3G A20G U26A | 0.61
A3C G8U G33C | 0.31

Variant | self-cleavage
A3G A18G A20G U25C U76A | 0.53
A2U A5G A15G U80A | 0.85
A3G A20G A47G | 0.82
A2U A13U G73C | 1.24
A2U A15C C38U U58C A64G U76A | 0.03
A3G A18G U25A U66G | 0.05
A3G A20G U31C U72C | 0.34
A3G A21U U25C U54A A64C | 0.08
A3G A13U U25G U66C U80C | 0.08
A2U A35U U72A | 0.22
A3G A5G G8U U72C | 0.22
A3G A18G C40U | 0.64
A3G A5G A13U C23U A28G U80C | 0.63
A3G A15G A20G A21U G22C U58C | 0.49
A3G A28G C40U A65G | 0.07
A3G A13G A18U U72A | 0.27
A3G A21U C29G U41G U51A A64U U72C | 0.09
A3C A15G U25C U76C U78A | 0.09
A3C A13U U69A | 1.02
A3G A20G U26A A35U U78C | 0.21
A3C U54C U67C | 0.34
A3G A13G A20U A47G A56G | 0.51
A2U G7A A45G U54A | 0.06
A3G A5U U26C U66C | 0.58

Variant | self-cleavage
A3C A15G C17U A20G A47G A56U | 0.08
A3G A15U C38U A47G U48C U69A | 0.05
A3G A20G U41C U66G A75G | 0.14
A3G A15U G24A U25G A57U U69A | 0.02
A2U A3G G16A C17U A45C U49C | 0.19
A2U A18G U26C A45G U69C | 0.13
A3G A13G U51A C62U A65G U67C U74C | 0.19
A3G A13G A20U U54C U72G | 0.12
A3G A18C U25G U72A | 0.28
A3G A28G A35U U41C | 0.49
A3G A21G A57G | 0.55
A2U A15G G16A A28U G52A U54A | 0.09
A2U A5G U48C U60C | 0.34
A2U A13C A35G A47U G53A U76C U80A | 1.26
A3G A15C U51A G52U U60C | 0.96
A3C A15G U25C U54C | 0.67
A2U A21G A47G A65U | 0.14
A3G A18G U54G A56G | 0.2
A2U A28G U60C U69A | 0.13
A3G A13G A45G G46U U51A U80G | 0.42
A3G A20G U43G A47G | 0.5
A3G A18U A21C | 0.28
A3G A18U A21G | 0.36
